Assay results: publication PMC4336329 (PLoS ONE, 2015)
Hit rate of the full screen: of about 310,000 compounds, about 14,000 (4.5%) showed an effect of 50% or more. Effects have a minus sign here. This is one part of the list.

The molecules below were run against human ether-à-go-go-related gene (hERG) potassium channel (human, UniProt Q12809) (assay: primary screen, population patch clamp on CHO cells stably expressing hERG).
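Further: peak tail current of the secondary pulse compared with the same well before compound.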

human ether-à-go-go-related gene (hERG) potassium channel, sequence (Q12809 whole entry, looked up): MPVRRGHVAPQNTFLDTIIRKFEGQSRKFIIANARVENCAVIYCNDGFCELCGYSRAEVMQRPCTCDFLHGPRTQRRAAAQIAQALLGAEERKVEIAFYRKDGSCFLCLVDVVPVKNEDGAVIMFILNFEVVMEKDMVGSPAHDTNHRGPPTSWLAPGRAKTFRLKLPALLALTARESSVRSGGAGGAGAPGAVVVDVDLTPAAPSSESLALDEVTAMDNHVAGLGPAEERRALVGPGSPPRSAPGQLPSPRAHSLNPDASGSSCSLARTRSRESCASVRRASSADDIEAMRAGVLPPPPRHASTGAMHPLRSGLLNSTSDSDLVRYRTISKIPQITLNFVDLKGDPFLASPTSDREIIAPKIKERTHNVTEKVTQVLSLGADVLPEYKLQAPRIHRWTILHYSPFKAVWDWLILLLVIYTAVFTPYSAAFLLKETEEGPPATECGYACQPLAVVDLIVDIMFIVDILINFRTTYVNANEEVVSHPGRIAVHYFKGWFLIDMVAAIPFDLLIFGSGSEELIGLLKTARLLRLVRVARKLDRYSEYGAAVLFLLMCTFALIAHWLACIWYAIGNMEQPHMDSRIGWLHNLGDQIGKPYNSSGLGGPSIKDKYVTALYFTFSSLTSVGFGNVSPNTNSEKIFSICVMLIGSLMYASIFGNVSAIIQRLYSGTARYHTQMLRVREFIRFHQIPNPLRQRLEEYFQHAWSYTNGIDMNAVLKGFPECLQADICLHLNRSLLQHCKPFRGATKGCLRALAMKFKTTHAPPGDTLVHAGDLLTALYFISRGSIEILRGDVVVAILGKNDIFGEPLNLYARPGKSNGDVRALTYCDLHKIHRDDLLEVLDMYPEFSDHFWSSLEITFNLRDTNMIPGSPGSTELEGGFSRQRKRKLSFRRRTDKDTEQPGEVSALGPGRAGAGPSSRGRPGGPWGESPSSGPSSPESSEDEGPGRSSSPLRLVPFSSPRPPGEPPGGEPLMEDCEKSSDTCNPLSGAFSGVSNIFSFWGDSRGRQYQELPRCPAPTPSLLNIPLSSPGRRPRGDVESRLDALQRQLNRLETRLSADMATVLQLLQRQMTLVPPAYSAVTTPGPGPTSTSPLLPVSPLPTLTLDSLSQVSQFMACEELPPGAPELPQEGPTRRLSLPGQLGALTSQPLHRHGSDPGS

Going from `CC(=O)c1cn(CC(=O)Nc2ccc(C)cc2)c2ccccc12` to `CCc1ccc2c(c1)C(=O)C(=O)N2CC(=O)Nc1ccc(NC(=O)c2ccccn2)cc1`, the “hERG current change (%, negative = inhibition) at 10uM” value rises from 8.06% to 8.43%.

Going from `O=C(/C=C/c1ccccc1Cl)N(Cc1cccs1)C1CCS(=O)(=O)C1` (stereo not shown) to `O=C(CSc1nnc(-c2cccs2)n1CC1CCCO1)c1cc2ccccc2o1` (stereo not shown), the “hERG current change (%, negative = inhibition) at 10uM” value falls from -31.5% to -38.9%.

First: Cn1c(C(O)C(O)c2ccccc2)nc2ccccc21 (stereo not shown)
Second: CCOc1ccccc1N(CC(=O)O)S(=O)(=O)c1ccccc1
The “hERG current change (%, negative = inhibition) at 10uM” value of the first is lower: 7.08% for the first, 39.8% for the second.

Compared with `Cc1cc(C(=O)OCC(=O)NCCc2ccc(S(N)(=O)=O)cc2)c2ccccc2n1`, `COc1ccc(-c2nn(CC(=O)NCCc3ccccc3)c(=S)n2C)cc1` is lower in “hERG current change (%, negative = inhibition) at 10uM” value: 14.6% for the first, -18.2% for the second.

Compared with `COc1ccc(OCc2cc(C(=O)NCc3nc(C)cs3)no2)c(Cl)c1`, `COc1ccc(CCNC(=O)c2cc(-c3ccccc3OC)on2)cc1OC` is higher in “hERG current change (%, negative = inhibition) at 10uM” value: -17.2% for the first, 1.28% for the second.

Going from `O=C(CNC(=O)c1ccccc1)NC1(C(=O)NC2CCCC2)CCCCC1` to `O=C(NC1CCCCC1)c1ccc2[nH]c(=O)c(=O)[nH]c2c1`, the “hERG current change (%, negative = inhibition) at 10uM” value rises from 5.11% to 13.3%.

First: O=C(CCn1c(=S)[nH]c2cc3c(cc2c1=O)OCO3)NCc1ccccc1Cl
Second: CCc1ccc(-c2nc(CS(=O)CC(=O)NCc3ccc4c(c3)OCO4)c(C)o2)cc1 (stereo not shown)
The “hERG current change (%, negative = inhibition) at 10uM” value of the first is higher: 23% for the first, -33.4% for the second.

Compared with `Cc1nc(C(=O)Nc2ccc(F)cc2)nn1-c1ccc([N+](=O)[O-])cc1`, `Cc1cc(C)n(-c2ccc(C(=O)OCC(=O)Nc3ccc(Cl)cc3[N+](=O)[O-])cc2)n1` is higher in “hERG current change (%, negative = inhibition) at 10uM” value: -67.4% for the first, 16.7% for the second.

Going from `CCCNc1nc2c(c(=O)n(C)c(=O)n2C)n1CCC(C)C` to `CC(C)CCNC(=O)c1ccc(Cl)c(N)c1`, the “hERG current change (%, negative = inhibition) at 10uM” value rises from 4.05% to 18.9%.

Compared with `CCn1cc(C(=O)O)c(=O)c2cnc(N3CCNCC3)nc21`, `COc1cc(C(=O)NCCc2ncccc2C)ccc1OC1CCN(C(C)=O)CC1` is higher in “hERG current change (%, negative = inhibition) at 10uM” value: -65.4% for the first, 21.9% for the second.

Compared with `COc1ccc(NC2=NC(=S)N(c3cccc(C)c3)C23CCCCC3)cc1`, `COc1ccc(N2C(=O)C(=O)/C(=C(/O)c3ccc(C)cc3)C2c2cccnc2)cc1` (stereo not shown) is lower in “hERG current change (%, negative = inhibition) at 10uM” value: -3.96% for the first, -38.5% for the second.

First: COc1ccc(C(=O)Nc2cnn(Cc3ccc(Cl)cc3)c2)cc1OC
Second: COc1ccc(NC(=O)CSc2nc3[nH]ncc3c(=O)n2-c2ccccc2C)cc1OC
The “hERG current change (%, negative = inhibition) at 10uM” value of the first is lower: -29% for the first, 0.645% for the second.

First: CCCCCCCOc1ccc(C(=O)Nc2cccnc2)cc1
Second: CCCCC(=O)Nc1cccc(NC(=O)c2ccc(Br)o2)c1
The “hERG current change (%, negative = inhibition) at 10uM” value of the first is higher: 16.5% for the first, -31.3% for the second.

Compared with `CN(CC(=O)Nc1ccc(F)c(Cl)c1)S(=O)(=O)c1cccc2nsnc12`, `COc1cccc(NC(=O)COC(=O)c2cc(=O)c3ccccc3o2)c1` is higher in “hERG current change (%, negative = inhibition) at 10uM” value: -21.1% for the first, 15.4% for the second.

Going from `COc1ccc(-c2csc(C)n2)cc1OC` to `COc1cc2nc(C3CCC3)n(NC(=O)c3ccco3)c(=O)c2cc1OC`, the “hERG current change (%, negative = inhibition) at 10uM” value falls from 4.47% to -15.5%.

Going from `Cc1cccc(Nc2nc(N)nc(CN3CCN(c4ccccc4F)CC3)n2)c1` to `COc1ccccc1N1CCN(CCCCNC(=O)c2ccc3ccccc3c2)CC1.Cl`, the “hERG current change (%, negative = inhibition) at 10uM” value falls from -68.2% to -79.6%.

First: COC(=O)c1ccc(CSc2nnc(-c3ccncc3)o2)cc1
Second: CCSc1ccccc1-c1nc(-c2ccncc2)no1
The “hERG current change (%, negative = inhibition) at 10uM” value of the first is higher: 2.87% for the first, -4.39% for the second.

Going from `COC(=O)c1ccc(Cn2cc(/C=C\[N+](=O)[O-])c3ccccc32)o1` to `Cc1ccccc1NC(=O)Cc1nc(COC(=O)c2cc([N+](=O)[O-])ccc2N)cs1`, the “hERG current change (%, negative = inhibition) at 10uM” value rises from -16.4% to 6.4%.

Going from `CC(=O)c1cc(Cc2csc(C(C)=O)c2)cs1` to `CC(=O)Cc1nsc(NC(=O)c2ccc(Br)o2)n1`, the “hERG current change (%, negative = inhibition) at 10uM” value rises from 2.75% to 5.77%.

Going from `Clc1cc(Cl)cc(Nc2ncn[nH]2)c1` to `CC(C)C(=O)Nc1ncc(Cc2ccc(Cl)cc2)s1`, the “hERG current change (%, negative = inhibition) at 10uM” value rises from -8.8% to 6.53%.

First: O=C(c1sc(N2CCOCC2)nc1-c1ccccc1)N1CCCCC1
Second: COCC(=O)N1CCC(Oc2ccc(C(=O)N3CCCCCCC3)cc2)CC1
The “hERG current change (%, negative = inhibition) at 10uM” value of the first is higher: 29.9% for the first, 22.7% for the second.

Going from `N#CCCSCc1ccc(OCC(=O)O)cc1` to `CCc1ccc(NC(=O)COC(=O)CCC2CCCC2)cc1`, the “hERG current change (%, negative = inhibition) at 10uM” value rises from -1.48% to 11.7%.

First: O=[N+]([O-])c1cccc(-c2nnc(-c3ccccc3)o2)c1
Second: O=C1CC(/C=C/c2ccc([N+](=O)[O-])cc2)=Nc2ccccc2N1
The “hERG current change (%, negative = inhibition) at 10uM” value of the first is higher: 10.9% for the first, -21.1% for the second.

Compared with `N#CCC(=O)N/N=C/c1c2ccccc2cc2ccccc12`, `Cc1ccc(C)c(NC(=O)c2ccccc2C(=O)c2ccccc2)c1` is higher in “hERG current change (%, negative = inhibition) at 10uM” value: -10.4% for the first, 17.4% for the second.

First: CC(=O)OCCOCn1cnn2c(=O)c(Br)c(C)nc12
Second: CCOC(=O)COn1c(=O)c[n+]([O-])c2ccccc21
The “hERG current change (%, negative = inhibition) at 10uM” value of the first is lower: -7.03% for the first, -2.82% for the second.

First: CC1(Cc2cn(CCC#N)c3ccccc23)OCCO1
Second: CC1=C([N+](=O)[O-])C(c2ccccc2)NC(=O)N1 (stereo not shown)
The “hERG current change (%, negative = inhibition) at 10uM” value of the first is lower: 7.64% for the first, 21.7% for the second.

First: O=C1C2CC=CCC2C(=O)N1c1nc2n(n1)C(c1ccccc1)CC(c1ccccc1)N2 (stereo not shown)
Second: O=C(Nc1nc(-c2ccccc2)cs1)C1COc2ccccc2O1 (stereo not shown)
The “hERG current change (%, negative = inhibition) at 10uM” value of the first is lower: -52.6% for the first, -8.08% for the second.

Compared with `COc1cc(C(=O)NCCC(=O)NC(C)C)cc(OC)c1OC`, `CC(C)NC(=O)c1ccc2c(c1)N(CC(=O)N1CCCC1)C(=O)C(C)(C)O2` is lower in “hERG current change (%, negative = inhibition) at 10uM” value: 12.8% for the first, 0.896% for the second.

Going from `COc1ccccc1CN1[C@@H](CC(=O)O)c2cc(F)ccc2S1(=O)=O` to `CCOC(=O)CSc1nc(Nc2ccc3c(c2)OCO3)c2ccccc2n1`, the “hERG current change (%, negative = inhibition) at 10uM” value falls from 17.2% to -8.23%.

First: Cc1cc(C(=O)NCc2ccco2)on1
Second: Cc1ccc(NC(=O)CSc2nnc(-c3ccco3)o2)c(C)c1
The “hERG current change (%, negative = inhibition) at 10uM” value of the first is lower: 4.81% for the first, 12.7% for the second.

First: O=C(CCC(=O)Nc1ccccc1Cl)NNC(=O)c1ccco1
Second: CCCCC(=O)NNC(=S)NC(=O)C(c1ccccc1)c1ccccc1
The “hERG current change (%, negative = inhibition) at 10uM” value of the first is lower: 11% for the first, 17.9% for the second.

Going from `Cc1ccc(C(=O)N2CCc3cc4c(cc3C2C)OCCCO4)cc1` (stereo not shown) to `CN1CCN(C(=O)COCc2cc(-c3ccc4c(c3)OCO4)on2)CC1`, the “hERG current change (%, negative = inhibition) at 10uM” value falls from 11.5% to 6.9%.

Compared with `CCOC(=O)N/N=C/c1ccc(F)cc1F`, `CCOC(=O)C1=C(NC#N)OC(C)=C(C)C1c1ccc(O)cc1` (stereo not shown) is lower in “hERG current change (%, negative = inhibition) at 10uM” value: 8.02% for the first, -5.26% for the second.

Compared with `CCOC(=O)CSc1nc(N2CCOCC2)c2c(c1C#N)CC(C)(C)N(C)C2`, `Cc1nc2ccc(Cl)cn2c1P(=S)(N1CCOCC1)N1CCOCC1` is higher in “hERG current change (%, negative = inhibition) at 10uM” value: -33.4% for the first, -4.47% for the second.

Going from `Cc1cc2ncn(C3CC(=O)N(Cc4ccccc4)C3=O)c2cc1C` (stereo not shown) to `CN1CCN(CC(=O)Nc2ccc(OCc3ccccc3)cc2)CC1.Cl`, the “hERG current change (%, negative = inhibition) at 10uM” value falls from 4.71% to -9.11%.

Going from `C=CCn1c(O)c(C(CC)=Nc2ccccc2NC(C)=O)c(=O)[nH]c1=O` to `COc1ccc(C(=O)NCC(=O)N/N=C(\C)Cc2ccccc2)cc1`, the “hERG current change (%, negative = inhibition) at 10uM” value rises from -0.237% to 6.33%.

Going from `CCC(=O)NC(C)c1cc(Cl)c2cccnc2c1O` (stereo not shown) to `CCn1c(SCC(=O)Nc2nccs2)nnc1-c1ccc(C)cc1`, the “hERG current change (%, negative = inhibition) at 10uM” value falls from 10.5% to -11.3%.

Compared with `O=C(Nc1cc(C(=O)N2CCN(c3ccccc3O)CC2)ccc1Cl)c1cccs1`, `COc1cccc(C(=O)NNC(=O)c2ccccc2-n2cccc2)c1` is higher in “hERG current change (%, negative = inhibition) at 10uM” value: -60.1% for the first, 34.4% for the second.

Going from `COc1ccc(Cl)cc1NC(=O)C1CCCN(S(C)(=O)=O)C1` (stereo not shown) to `CC1=C(C(=O)Nc2ccc(Cl)cc2)C(c2ccco2)NC(=O)N1` (stereo not shown), the “hERG current change (%, negative = inhibition) at 10uM” value falls from 5.29% to -7.31%.

First: CC(=O)C1=C(C)NC(SCC(=O)c2cc(Cl)ccc2Cl)=C(C#N)C1c1ccco1 (stereo not shown)
Second: CC(C)C1N=C2c3ccccc3N=C(SCC#N)N2C1=O (stereo not shown)
The “hERG current change (%, negative = inhibition) at 10uM” value of the first is lower: -8.83% for the first, 5.14% for the second.

First: CCCCCCCCNC(=O)c1cnsn1
Second: CCC1CCCCN1C(=O)CCCc1ccccc1 (stereo not shown)
The “hERG current change (%, negative = inhibition) at 10uM” value of the first is lower: -11.9% for the first, 2.45% for the second.

Compared with `O=c1c2c3c(sc2nc(NCCO)n1CCc1ccccc1)CCCCC3`, `COc1ccc(S(=O)(=O)NCC(=O)N(CC(=O)NCC2CCCO2)Cc2ccccc2)cc1` (stereo not shown) is higher in “hERG current change (%, negative = inhibition) at 10uM” value: 3.34% for the first, 9.51% for the second.

Going from `Oc1oc(-c2ccc(Br)cc2)nc1/C=N/c1ccccn1` to `O=c1cc(-c2ccc(O)cc2)oc2ccc(O)cc12`, the “hERG current change (%, negative = inhibition) at 10uM” value falls from 8.15% to -7.57%.

Compared with `COCCn1c(-c2ccc(C)cc2)nc2oc3cc(OC)ccc3c(=O)c2c1=O`, `Cc1ccc(SCc2c(C(=O)N/N=C/c3ccoc3)nnn2-c2nonc2N)cc1` is higher in “hERG current change (%, negative = inhibition) at 10uM” value: 8.53% for the first, 20.3% for the second.

First: Cc1ccc(NC(=O)O/N=C2\CCCCC2c2ccc([N+](=O)[O-])cc2[N+](=O)[O-])cc1 (stereo not shown)
Second: O=C(CN(C(=O)CNS(=O)(=O)c1ccccc1)c1ccc(Cl)cc1)NCC1CCCO1 (stereo not shown)
The “hERG current change (%, negative = inhibition) at 10uM” value of the first is lower: -8.38% for the first, 3.27% for the second.

With `O=C(OCCO)c1cc(Cl)c(C(=O)OCCO)cc1Cl` the “hERG current change (%, negative = inhibition) at 10uM” value was 9.51%.
